Patent publication US20130096282A1 (LOSTAM BIOPHARMACEUTICALS, published 2013)

Molecular target: T1, flagellin type A of P. aeruginosa laboratory strain PAK (Pseudomonas aeruginosa, UniProt P21184 2-394)
T1 construct: whole, on cells; Tested on whole immobilized or formaldehyde-fixed bacteria (ELISA) and in blotted bacterial lysate (western blot)
T1 sequence: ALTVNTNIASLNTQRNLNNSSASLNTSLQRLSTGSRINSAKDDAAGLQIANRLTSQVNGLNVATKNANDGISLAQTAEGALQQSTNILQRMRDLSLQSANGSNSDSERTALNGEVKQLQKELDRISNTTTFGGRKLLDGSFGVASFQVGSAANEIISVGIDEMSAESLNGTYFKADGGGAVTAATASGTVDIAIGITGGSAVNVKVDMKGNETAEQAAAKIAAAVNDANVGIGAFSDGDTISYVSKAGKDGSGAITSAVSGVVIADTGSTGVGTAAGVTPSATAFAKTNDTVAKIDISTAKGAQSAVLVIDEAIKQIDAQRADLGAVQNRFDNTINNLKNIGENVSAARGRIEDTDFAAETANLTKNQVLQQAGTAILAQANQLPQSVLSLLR
Experiment: ELISA on formaldehyde-fixed whole PAK bacteria

B1: monoclonal dual-specific anti-flagella type A and B antibody LST-009 (bispecific antibody)
chain 1: DVQLQESGPGLVKPSQSLSLPCSVTGYSITSGYYWNWIRQFPGNKLEWMGYIRYDGNNNYNPSLKNRISITHDTSKNQFFLKLNYVTTEDTATYYCARGLQFYFDSWGQGTTLTVSSGGGGSGGGGSGGGGSDIVMSQSPSSLAVSGGEKVTMSCKSSQSLLNGSYQKHTLAWYQQKPGQSPKLLIYWASTRESGVPDRFTGSGSGTDFTLTISSVKAEDLAVYYCQQYYSYPWTFGGGTKLEIKRPGSAGGSGGDS[human IgG1 Fc with T366Y (EU numbers) left out]
chain 2: DIVMTQSHIFMSTSVGDRVSITCKASQDVGSAVAWYQQKPGQSPKVLIYWTSTRHTGVPDRFAGSGSGTEFTLTISNVQSEDLADYFCQQYSSYPLTFGAGTKLELKRGGGSAAAEVMLVESGGGLVKPGGSLKLSCAASGFTFSTFTMSWVRQTPEKRLECVATINGGGGNTYYPDSVKGRFTISRDNAKNNLYLQMSSLRSEDTAFYFCSRLYGIYAMDYWGQGTSVTVSSPGSAGGSGGDS[human IgG1 Fc with Y407T (EU numbers) left out]
notes: Knobs-into-holes scFv-Fc heterodimer made in CHO cells; also called dual specific LST-009; heterodimeric LST-009 mAb
EC50: ~4 µg/mL
